Source: ChEMBL document CHEMBL1157539, “Thousands of chemical starting points for antimalarial lead identification” (Nature, 2010)
In all, about 13,000 compounds were measured (“IFI”: median about 4, highest 2% from about 17 on). The list shows a part of the results.

assay: GSK_TCMDC: Inhibition Frequency Index (IFI). The number of non-kinase HTS assays where a compound showed > 50 % inhibition, expressed as a percentage of the number of such assays in which the compound was tested (-0 is zero); format: functional

Row | Structure (SMILES) | IFI [%]
1 | OCCCCCCNc1ccnc2[nH]c3ccc(I)cc3c12 | 3.76
2 | CC(O)C1CCCCN1C(=O)c1ccc(-c2ccc(-c3nc4ccccc4[nH]3)s2)cc1 (configuration not stated) | 6.73
3 | CC(=O)Nc1ccc(OCCN(CC(C)C)c2ccc(C(F)(F)F)c(C#N)c2)c(Cl)c1 | 0
4 | Cn1nccc1C(=O)NCCNCc1cccc(-c2ccc(-c3nc4cc(C(F)(F)F)ccc4[nH]3)cc2)c1 | 14.8
5 | Cc1cccc(NC(=S)NC2CCN(CCCCCNC(=O)/C=C/c3ccc(Cl)c(Cl)c3)CC2)c1 | 5.67
6 | Cc1cc(NCCC(=O)Nc2ccccc2)nc(NCCOc2ccccc2)n1 | 4.88
7 | Cc1cc(N2CCCC2)nc(Nc2ccc(NC(=O)COc3ccccc3)cc2)n1 | 22.2
8 | COc1ccc2c(=O)c3ccc(OC)cc3[nH]c2c1 | 0.76
9 | Cc1noc(NC(=O)c2sc3ccccc3c2O)c1C | 2.46
10 | O=C(NCCN1CCOCC1)c1ccc(O)c(-c2cccc(C(F)(F)F)c2)c1 | 0.75
11 | Cc1nc(C)c(-c2ccc(Oc3cc(Cl)cc(Cl)c3)cc2)c(O)c1Cl | 2.27
12 | Cc1cccn2c(=O)c3cc(C(=O)NCc4cccnc4)c(=N)n(CCc4ccccc4)c3nc12 | 2.84
13 | CN(C)C(=O)c1ccc(CN(Cc2ccc(OC(C)(C)C)cc2)Cc2ccc3c(c2)OCCO3)cc1 | 6.32
14 | CCC(O)c1ccc(Br)cc1NC(=O)c1cccc(Cl)c1 (configuration not stated) | 4.35
15 | CCOC(=O)c1c(SCc2cccc(F)c2F)[nH]c2ccccc2c1=O | 2.78
16 | CCc1ccc(-n2cc(C(=O)c3cc(Br)ccc3O)cc(C#N)c2=O)cc1 | 15.9
17 | CC(C)NCc1ccc(-c2cccc(-c3nc4ccccc4[nH]3)c2)cc1 | 3.81
18 | Cc1ccc(CN2CCCN(Cc3cccc(NC(=O)c4cc5ccccc5s4)c3)CC2)cc1C | 9.92
19 | CCOc1cc2ncnc(Nc3ccc(OCc4c(Cl)cccc4Cl)c(OC)c3)c2cc1OCC | -0
20 | O=C(Nc1ccc(C(=O)OCC2CCCN3CCCCC23)cc1)c1ccc([N+](=O)[O-])cc1 (configuration not stated) | 0.76
21 | NCc1cccc(-c2cccc(CNC3CCN(Cc4ccccc4)CC3)c2)c1 | 1.45
22 | COc1cc2c(cc1OCCN1CCC(N)CC1)N(C(=O)/C=C/c1ccccc1Cl)CC2 | 5.63
23 | COc1ccc(CNCCc2cccs2)cc1-c1cccc(S(=O)(=O)NCCN2CCCC2)c1 | 9.8

Row | Structure (SMILES) | IFI [%]
24 | O=C(/C=C/c1ccc(Cl)c(Cl)c1)NCCCCN1CCCN(C(=O)Nc2cc(Cl)cc(Cl)c2)CC1 | 7.44
25 | CC(C)NCc1ccc(-c2ccc(NC(=O)c3ccc(C#N)cc3)cc2)cc1 | 4.12
26 | O=C(Nc1ccc(F)cc1F)NC1CCN(CCCCCNC(=O)C2CC2c2ccc(Cl)c(Cl)c2)CC1 (configuration not stated) | 12.8
27 | CC(C)(C)c1ccc(CN2CCC(CNC(=O)c3cc(-c4cccc(C(F)(F)F)c4)cs3)C2)cc1 (configuration not stated) | 16
28 | Cc1ccc(Cn2nc(Cl)c(N3CCNCC3)cc2=O)cc1NC(=O)Nc1ccc(-c2ccccc2)cc1 | 10.4
29 | COc1ccc2ccccc2c1CCCCN1CCN(CC(c2ccc(F)cc2)N2CCN(C3CCCC3)CC2)CC1 (configuration not stated) | 12.8
30 | CC1(C)NC(N)=NC(=N)N1OCCOc1cccc(C(F)(F)F)c1 | 3.7
31 | CCn1cc(C=C2Oc3c(ccc(O)c3CN3CCCCC3C)C2=O)c2ccccc21 (configuration not stated) | 2.63
32 | O=C(Nc1cccc(Cl)c1)c1cc2ccccc2cc1O | 4.69
33 | COc1ccccc1C1CCN(C2CCC(NC(=O)/C=C/c3cc(C(F)(F)F)ccc3F)CC2)CC1 (configuration not stated) | 8.2
34 | C=C1C(C(=O)OCC)=CN(CC)c2cc(O[C@H]3CCN(C(=O)OC(C)(C)C)C3)ccc21 | -0
35 | CCc1c(C(=O)NC2CCC(N3CCC(c4ccccc4OC)CC3)CC2)[nH]c2ccc(Br)cc12 (configuration not stated) | 16.4
36 | CCCCCCOc1ccc(N2C(N)=NC(N)=NC2(C)C)cc1 | 2.92
37 | CN1CCC(C(=O)N(Cc2ccc(-c3ccc(CNCCc4ccc(S(C)(=O)=O)cc4)cn3)cc2)Cc2ccc3c(c2)OCO3)CC1 | 3.47
38 | COc1ccc(NC(=O)NC2CCN(c3ccnc4cc(Cl)ccc34)CC2)cc1 | -0
39 | CNC(=O)c1ccccc1Nc1nc(Nc2cccnc2)ncc1C | 0
40 | CCc1cn(C)c2c(N3CCCC3=O)cc(C(=O)N[C@@H](Cc3ccccc3)[C@H](O)CNC(C)(C)c3cccc(OC)c3)cc12 | 5
41 | CCNc1cc(C(=O)N[C@@H](Cc2ccccc2)[C@H](O)CNC2CCCCC2)cc(N2CCCCS2(=O)=O)c1 | 1.46
42 | CC(=O)Nc1cccc(CNCc2ccc(-c3cnc(N4CCCC(C)(C)C4)nc3)cc2)c1 | 2.47
43 | COc1ccc(N(c2nc(-c3cc(Cl)ccc3Cl)cs2)C2CCNC2)cc1 (configuration not stated) | 20
44 | CCN(CC)CCNc1ccnc2[nH]c3ccc(C)cc3c12 | 0
45 | COc1ccccc1N1CCN(CCCCNC(=O)c2ccc(NC(=O)c3cc(Cl)cc(Cl)c3)cc2)CC1 | 3.57
46 | C=Cc1ccc(-c2c(C)[nH]c(C)c(Br)c2=O)cc1 | 0.89

Row | Structure (SMILES) | IFI [%]
47 | CC(C)(C)Nc1cc(C2CC2)nc(-c2ccccn2)n1 | 2.68
48 | CN(C)CCOc1ccc(-c2cc(-c3ccnc(N)n3)c(-c3ccc(Cl)c(O)c3)o2)cc1 | 5.04
49 | Cc1[nH]c(C)c(-c2ccc(-c3cccc(C(F)(F)F)c3)nc2)c(=O)c1Br | 4.55
50 | Cc1[nH]c(C)c(-c2ccc(-c3ccc(F)cc3)nc2)c(=O)c1Br | 1.82
51 | CN(C)Cc1ccc(-c2cccc(Nc3nccc(NCC(O)c4ccccc4)n3)c2)cc1 (configuration not stated) | 11.2
52 | COc1cc2nc(Nc3ccc4c(cnn4Cc4ccccc4)c3)nc(Nc3ccc4c(cnn4Cc4ccccc4)c3)c2cc1OC | 6.4
53 | CCC(=O)N(c1ccccc1)C1CCN(CCCC(NC(=O)c2cc(C(F)(F)F)cc(C(F)(F)F)c2)c2ccc(Cl)c(Cl)c2)CC1 (configuration not stated) | 3.57
54 | Cc1ccc(/C=C/C(=O)NC2CCC(N3CCC(c4ccccc4C)CC3)CC2)cc1C (configuration not stated) | 15
55 | COc1cc2nc(NCCCOC(C)C)n3nc(-c4ccccc4)nc3c2cc1OC | 0.85
56 | COc1cccc2sc(N3CCN(C(=O)c4ccc([N+](=O)[O-])o4)CC3)nc12 | 0
57 | CCOc1cc[nH]c(=O)n1 | -0
58 | COc1ccccc1CN1CCC(NC(=O)c2ccc(-c3cccc(Cl)c3)s2)CC1 | 8.62
59 | COc1cc(Nc2nccc(N3CCC(NC(=O)c4cccc(NC(C)=O)c4)C3)n2)cc(OC)c1OC (configuration not stated) | 4.55
60 | O=S(=O)(NCCN1CCCC1)c1cccc(-c2cccc(CNCc3ccc(F)cc3)c2)c1 | 8.65
61 | COc1cccc(NC(=O)[C@H](C)n2c(=O)[nH]c3ccccc3c2=O)c1 | 0
62 | CCN(CC)S(=O)(=O)c1ccc(Cl)c(C(=O)Nc2ccc3nc(C)sc3c2)c1 | 3.64
63 | CC(C)CCNc1nc(NCCCc2ccccc2)c2cc(O)ccc2n1 | 11.3
64 | CNc1ccc(CNCc2cccc(-c3ccc(-c4nc5cccc(C)c5[nH]4)s3)c2)cc1 | 11.9
65 | O=C(/C=C/c1ccc(Cl)c(Cl)c1)NCCCCN1CCCN(C(=O)Nc2ccc(F)c(Cl)c2)CC1 | 6.9
66 | Cc1sc(CNCCCNc2cc(=O)c3ccccc3[nH]2)cc1Br | 4.35
67 | CCOc1cc(C)ccc1C1CCN(CCCCNC(=O)c2ccc(-c3ccc(C(F)(F)F)cn3)cc2)CC1 | 7.02
68 | Oc1cccc(-c2cnc3ccc(NCc4ccc(F)cc4)nn23)c1 | 4.65
69 | COc1cc2c(c(Cl)c1OC)CCN(Cc1ccccc1)CC2c1ccc(NC(=O)C(F)(F)F)cc1 (configuration not stated) | 1.46

Row | Structure (SMILES) | IFI [%]
70 | c1ccc(CN2CCC(NCc3ccc(-c4cccc(CNC5CCCC5)c4)cc3)CC2)cc1 | 3.52
71 | Cc1nc2nc(N)nc(N)c2c(C)c1Cc1ccc(O)cc1 | 2.29
72 | Cn1cnc(CCNC(=O)c2ccc(-c3ccc(-c4nc5cc(F)ccc5[nH]4)cc3)cc2)c1 | 3.81
73 | O=C(CCc1cccc(O)c1)NCC(NCCCNc1cc(=O)c2ccccc2[nH]1)c1cc(Br)cc(Br)c1 (configuration not stated) | 3.1
74 | CN1CCN(CCCN(Cc2ccc(-c3ccc(CNC4CCCC4)cc3)cc2)C(=O)CCC2CCCC2)CC1 | 8.22
75 | CCCN(CCC)c1nn2c(=O)c(C(=O)N3CCN(Cc4ccccc4)CC3)cnc2s1 | 0
76 | COCCn1c(-c2cccc(Cl)c2)nn(-c2ccc([N+](=O)[O-])cc2C#N)c1=S | 1.38
77 | N=C(NCC1CC1c1ccccc1)c1cccc(C(=N)NCC2CC2c2ccccc2)n1 (configuration not stated) | 5.65
78 | Fc1ccc2[nH]c(-c3ccc(-c4ccc(CN5CCN(c6ccncc6)CC5)cc4)cc3)nc2c1 | 11.5
79 | COc1ccc(OC)c(NC(=O)CSc2nc(-c3ccccc3Cl)ns2)c1 | 1.63
80 | CCNc1cc(C(=O)N[C@@H](Cc2ccccc2)[C@H](O)CNCc2cccc(-c3cncnc3)c2)cc(N2CCCC2=O)c1 | -0
81 | CC1CN(c2nc(NCCc3ccc(O)cc3)nc(NCc3ccccc3-c3ccc(C(F)(F)F)cc3)n2)CC(C)N1 (configuration not stated) | 17.2
82 | Cc1ccc(NC(=O)c2ccc(Cl)cc2)cc1-c1ccc(C(=O)Nc2ccncc2)cc1 | 15.5
83 | COc1ccc(CCc2ccc(-c3c(C)[nH]c(C)c(Cl)c3=O)cc2)cc1 | -0
84 | CN(CCN)Cc1ccc(-c2ccc(-c3nc4cc(F)ccc4[nH]3)s2)cc1 | 9
85 | O=C(Nc1cccc(-c2cccc(-c3nc4cc(C(F)(F)F)ccc4[nH]3)c2)c1)c1csnn1 | 4.39
86 | FC(F)(F)COc1c(CNCCCCCCNCc2ccc3ccccc3c2OCC(F)(F)F)ccc2ccccc12 | 14.9
87 | Cc1cc(NC2CCCC2)nc(Nc2ccccc2F)n1 | 7.58
88 | Cc1cc(N[C@@H](CC(C)C)C(=O)NCCc2ccccc2)nc(Nc2ccccc2)n1 | 4.65
89 | CNS(=O)(=O)CCNCc1ccc(-c2ccc3ncnc(Nc4ccc(OCc5ccccc5)cc4)c3c2)o1 | 2.86
90 | Cc1cc(NCCC(=O)Nc2ccccc2)nc(NCC2CCCCC2)n1 | 11.6
91 | COc1ccc2nc3cc(Cl)ccc3c(NCCc3ccccc3)c2c1 | 0
92 | Nc1ccc2[nH]cc(C3CCN(CCC4CCN(C(=O)/C=C/c5ccc(Cl)c(Cl)c5)CC4)CC3)c2n1 | 8.76
